Measured values as given in the antibiotic and cytotoxicity screens of Wong et al. (2023).
This is one part of the list.

Key:
[1] = tested on: HSkMC (human skeletal muscle cells); experiment: cytotoxicity call (relative viability < 0.9); settings: 10 µM
[2] = tested on: HepG2; experiment: cytotoxicity call (relative viability < 0.9); settings: 10 µM
[3] = tested on: S. aureus RN4220; experiment: growth inhibition call (relative growth <= 0.2); settings: 50 µM

COCC(=O)OCn1nnc2ccccc2c1=O
inactive: cytotoxicity call [1] | cytotoxicity call [2] | growth inhibition call [3]

C[C@@H]1CCCCO[C@@H](CN(C)C)[C@@H](C)CN([C@@H](C)CO)C(=O)c2cc(NC(=O)Nc3cccc4ccccc34)ccc2O1
inactive: cytotoxicity call [1] | cytotoxicity call [2] | growth inhibition call [3]

CC(C)NC(=O)Nc1cccc2c1O[C@@H](CN(C)Cc1ccc3c(c1)OCO3)[C@H](C)CN([C@@H](C)CO)C2=O
inactive: cytotoxicity call [1] | cytotoxicity call [2] | growth inhibition call [3]
